Experimental data published in the BET-seq Pho4 binding data (Le et al. 2018).
This is one part of the list. These are noisy estimates, calculated here from bound and input reads.

Each sequence was assayed against T1, Pho4 (S. cerevisiae) (UniProt P07270) (assay: relative binding free energy (BET-seq); higher = weaker binding). Conditions: reference: library average.
T1 sequence: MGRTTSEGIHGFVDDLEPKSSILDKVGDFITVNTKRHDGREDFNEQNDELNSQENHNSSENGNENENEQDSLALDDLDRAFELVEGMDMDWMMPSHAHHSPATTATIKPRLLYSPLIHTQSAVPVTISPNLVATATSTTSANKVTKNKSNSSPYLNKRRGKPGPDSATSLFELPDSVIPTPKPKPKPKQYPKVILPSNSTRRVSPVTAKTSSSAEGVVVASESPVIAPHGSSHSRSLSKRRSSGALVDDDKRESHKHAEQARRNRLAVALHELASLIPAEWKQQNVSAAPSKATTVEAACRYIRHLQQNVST

Row | Sequence | relative binding free energy [kcal/mol]
1 | AGGGGCACGTGCGCGG | -0.33
2 | AATGACACGTGCGGGG | 0.02
3 | TCGAGCACGTGTAGGG | -0.05
4 | ATTGTCACGTGCCGGG | 0.11
5 | GCGGGCACGTGCGTGG | -0.19
6 | AAAGTCACGTGGTTAG | -0.04
7 | ATATACACGTGGGTAT | -0.15
8 | TGGTTCACGTGTTGGG | 0.35
9 | AATAACACGTGTATGG | -0.11
10 | GAATACACGTGGAGGG | 0.18
11 | GTGTTCACGTGCAAGA | 0.32
12 | AGGGCCACGTGGGGCG | -0.31
13 | TGTTTCACGTGCATGC | 0.13
14 | TGTTACACGTGAGAGC | 0.33
15 | TGGTGCACGTGAACAG | 0.36
16 | TTGTCCACGTGCGGTG | -0.02
17 | TGTCGCACGTGTTGGC | -0.23
18 | GGTGTCACGTGTGGGA | 0.23
19 | GTTGGCACGTGGAATT | -0.1
20 | TACTGCACGTGTATTG | -0.01
21 | CTGTTCACGTGTCAGT | 0.17
22 | AATATCACGTGTTCGG | 0.17
23 | TTTTTCACGTGCGCTA | 0.23

Row | Sequence | relative binding free energy [kcal/mol]
24 | CTTGGCACGTGGCAGG | -0.24
25 | GTGTTCACGTGGATTA | 0.2
26 | TCGTGCACGTGGGGAG | -0.18
27 | GTAGGCACGTGGCACG | -0.04
28 | ATCGGCACGTGAGTCG | 0.2
29 | AATAACACGTGTGGGC | 0.04
30 | ATGCGCACGTGTAAGG | -0.07
31 | GGGGGCACGTGATGTC | -0.01
32 | TGGACCACGTGGGATT | -0.08
33 | TATAGCACGTGGGATA | -0.23
34 | TGGGGCACGTGCAGCT | -0.05
35 | CTTTTCACGTGAGTGG | 0.38
36 | CTGTTCACGTGGGAAG | 0.15
37 | TTAATCACGTGTTTCG | 0.26
38 | TCAGGCACGTGTAAGG | 0.07
39 | TGGAACACGTGTTGAA | 0.08
40 | CTCATCACGTGGTGGT | 0.13
41 | AGGCCCACGTGGTAGT | -0.1
42 | TGGGGCACGTGAACCG | 0.07
43 | CATGTCACGTGAGAGT | 0.3
44 | TGATGCACGTGGATGT | 0.08
45 | GGTATCACGTGGCGCG | 0.14
46 | CTGATCACGTGAAGGT | 0.33

Row | Sequence | relative binding free energy [kcal/mol]
47 | GTATTCACGTGTCGTG | 0.18
48 | TTGAACACGTGGTTAT | 0.09
49 | TAGGGCACGTGGTGGT | -0.12
50 | GGAAACACGTGTATAT | 0.06
51 | ATAGACACGTGCGTGG | -0.06
52 | GGCTGCACGTGTGGCC | 0.19
53 | GTAGTCACGTGGGGCA | -0.07
54 | GTACACACGTGTGGTA | 0.19
55 | CGGGGCACGTGTAGTC | -0.07
56 | TTCGGCACGTGTGGAC | 0.11
57 | GAAGACACGTGGTTTT | 0.18
58 | GGCGTCACGTGTGTGT | 0.27
59 | GTGCGCACGTGAGTGC | 0.21
60 | TTTTACACGTGGCTGC | 0.1
61 | GGTGCCACGTGGTGAA | -0.05
62 | ATATGCACGTGCGAGT | -0.06
63 | GTGTTCACGTGCTAGA | 0.24
64 | AAATGCACGTGTGGGG | 0.02
65 | TCAGTCACGTGTAGTG | 0.12
66 | GTGTGCACGTGACGAG | 0.21
67 | GACAGCACGTGTTTGT | -0.04
68 | TCTGACACGTGGGTGT | -0.08
69 | ATTATCACGTGTTGGC | 0.09

Row | Sequence | relative binding free energy [kcal/mol]
70 | GGTCGCACGTGGGCGA | -0.25
71 | TTCTACACGTGATTTT | 0.2
72 | GTGTTCACGTGGGCCT | 0.15
73 | TTGTTCACGTGATATT | 0.4
74 | GCGGTCACGTGAGTAG | 0.39
75 | CATTGCACGTGGTATT | -0.1
76 | TTGTGCACGTGCAGTA | -0.03
77 | TGCGTCACGTGGGCGT | -0.07
78 | TTAGGCACGTGAGGAG | 0.25
79 | GTACACACGTGTCGTG | 0.14
80 | CTGGTCACGTGTGTTC | 0.08
81 | TGGGTCACGTGACATT | 0.12
82 | ATGTACACGTGCGGTT | 0.2
83 | AGGATCACGTGTTCTG | -0.02
84 | GTAAGCACGTGGAGTA | -0.11
85 | CATTTCACGTGATAGG | 0.27
86 | AGGGCCACGTGAGCTG | 0.13
87 | TCGTGCACGTGTTTTA | -0.02
88 | ATGTCCACGTGTTTTA | -0.01
89 | GATTTCACGTGGATAT | 0.31
90 | GTCGACACGTGGGTGA | -0.07
91 | GTGGTCACGTGAGTCG | 0.37
92 | TGGTGCACGTGTCTGT | -0.03

Row | Sequence | relative binding free energy [kcal/mol]
93 | AAGTACACGTGGTGGT | -0.01
94 | GTGGGCACGTGGTTTG | -0.04
95 | TTGACCACGTGGTGGC | 0
96 | CAAAGCACGTGGGGTG | -0.3
97 | AATAGCACGTGGTGGC | -0.15
98 | TACGTCACGTGTGATG | 0.07
99 | TGGTGCACGTGAAAGT | 0.3
100 | TGCTTCACGTGTGGGG | 0.25
101 | TTAACCACGTGGGTGT | -0.2
102 | TGCTACACGTGAAGGG | 0.3
103 | AGTACCACGTGAAGGG | 0.22
104 | TGGCGCACGTGTAGAG | 0
105 | TTAATCACGTGACGTT | 0.19
106 | GGTAGCACGTGGGGCC | -0.12
107 | GGGCTCACGTGTCGGG | 0.18
108 | GTTCACACGTGGGCGG | -0.03
109 | AGATTCACGTGGGTGA | 0.12
110 | TGCAACACGTGTGGAG | 0.06
111 | TTTTGCACGTGTTGTC | 0.08
112 | AGGCGCACGTGAGTTT | 0.06
113 | TGATGCACGTGGGCTA | -0.13
114 | AGAAGCACGTGATAGT | 0.22
115 | AGGTTCACGTGGGAAT | 0.26
